# In the supplement of paper PMC8728848:
# Some of the results follow.
# B1: PV12658A-bvu-496-32-496 (Bacteroides vulgatus) (protein)
# chain: DLDGAITTPAAVELALNGIYYSLPGNGFNVIFPTVSGSFKAGTMWRQEIVSAGNAVYYSERMLPTLSFSDATEWDADYAVIKNANFLETACNRMSDGEFSGNRRAEVLGEIAYLRALAYFNILVRYCEFWDMNSEYGVVMRNEAPSVSNALKARSSVADSYQYILDQLEIAIEKAPDWKKLSQASKEAAKALKARVLLYAGKYTEAVAAVNDAIDTNSPLPEANYGDVFDKFSTTKEILFARVFDQKDATNTSTRQQCYGNSPTKKQGYWGPTNEYVELVGDDPRADAIFSKVDSLMDSRSSAVAYNLKSVKKLLNDANDMPVIFSRVSELYLIKAEALYRSGASISEAYAPIRKLRERAGAEIILPANNEELETAIFNEWMLELSFENWHEWFAMIRFAGYTEKPDFTRLLALNKTLREALEKEYEKSEAQGDNYYQRIIDRRIDAIPSSEISSNLECKQNPGY
# Tests used:
# Test in all cases: glycan array binding signal (z-score within array); higher = stronger binding
# Conditions in all cases: glycan notation: IUPAC condensed, linker removed
# Gal(b1-4)Glc = biological target: Gal(b1-4)Glc
# Method in brief: (§1)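 Glycan array data came from 3228 arrays in the Consortium for Functional Glycomics database, and only arrays with an available protein sequence were kept. Glycan names were put into IUPAC-condensed notation, and columns mapping to the same glycan were averaged. The binding signal is a within-array Z-score, averaged across arrays of one protein sequence run at different concentrations or buffers and across linkers. A negative Z-score can be read as non-binding.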
# Gal(b1-4)Glc6S = biological target: Gal(b1-4)Glc6S
# Method in brief: as §1
# Gal(b1-4)GlcNAc = biological target: Gal(b1-4)GlcNAc
# Method in brief: as §1
# [1] = biological target: Gal(b1-4)GlcNAc(a1-6)Gal(b1-4)GlcNAc
# Method in brief: as §1
# Gal(b1-4)GlcNAc(b1-2)Man = biological target: Gal(b1-4)GlcNAc(b1-2)Man
# Method in brief: as §1
# [2] = biological target: Gal(b1-4)GlcNAc(b1-2)Man(a1-3)Man(b1-4)GlcNAc(b1-4)GlcNAc
# Method in brief: as §1
# [3] = biological target: Gal(b1-4)GlcNAc(b1-2)Man(a1-3)[Gal(b1-4)GlcNAc(b1-2)Man(a1-6)]Man(b1-4)GlcNAc(b1-4)GlcNAc
# Method in brief: as §1
# [4] = biological target: Gal(b1-4)GlcNAc(b1-2)Man(a1-3)[Gal(b1-4)GlcNAc(b1-2)Man(a1-6)]Man(b1-4)GlcNAc(b1-4)[Fuc(a1-6)]GlcNAc
# Method in brief: as §1
# [5] = biological target: Gal(b1-4)GlcNAc(b1-2)Man(a1-3)[Gal(b1-4)GlcNAc(b1-2)Man(a1-6)][Gal(b1-4)GlcNAc(b1-4)]Man(b1-4)GlcNAc(b1-4)[Fuc(a1-6)]GlcNAc
# Method in brief: as §1
# [6] = biological target: Gal(b1-4)GlcNAc(b1-2)Man(a1-3)[Gal(b1-4)GlcNAc(b1-2)Man(a1-6)][GlcNAc(b1-4)]Man(b1-4)GlcNAc(b1-4)[Fuc(a1-6)]GlcNAc
# Method in brief: as §1
# [7] = biological target: Gal(b1-4)GlcNAc(b1-2)Man(a1-3)[GlcNAc(b1-2)Man(a1-6)]Man(b1-4)GlcNAc(b1-4)GlcNAc
# Method in brief: as §1
# [8] = biological target: Gal(b1-4)GlcNAc(b1-2)Man(a1-3)[GlcNAc(b1-4)][Gal(b1-4)GlcNAc(b1-2)Man(a1-6)]Man(b1-4)GlcNAc(b1-4)GlcNAc
# Method in brief: as §1
# [9] = biological target: Gal(b1-4)GlcNAc(b1-2)Man(a1-3)[Man(a1-6)]Man(b1-4)GlcNAc(b1-4)GlcNAc
# Method in brief: as §1
# [10] = biological target: Gal(b1-4)GlcNAc(b1-2)Man(a1-6)Man(b1-4)GlcNAc(b1-4)GlcNAc
# Method in brief: as §1
# [11] = biological target: Gal(b1-4)GlcNAc(b1-2)Man(a1-6)[GlcNAc(b1-2)Man(a1-3)]Man(b1-4)GlcNAc(b1-4)GlcNAc
# Method in brief: as §1
# [12] = biological target: Gal(b1-4)GlcNAc(b1-2)Man(a1-6)[Man(a1-3)]Man(b1-4)GlcNAc(b1-4)GlcNAc
# Method in brief: as §1
# [13] = biological target: Gal(b1-4)GlcNAc(b1-2)[Gal(b1-4)GlcNAc(b1-4)]Man(a1-3)[Gal(b1-4)GlcNAc(b1-2)Man(a1-6)]Man(b1-4)GlcNAc(b1-4)GlcNAc
# Method in brief: as §1
# [14] = biological target: Gal(b1-4)GlcNAc(b1-2)[Gal(b1-4)GlcNAc(b1-4)]Man(a1-3)[Gal(b1-4)GlcNAc(b1-2)[Gal(b1-4)GlcNAc(b1-6)]Man(a1-6)]Man(b1-4)GlcNAc(b1-4)GlcNAc
# Method in brief: as §1
# [15] = biological target: Gal(b1-4)GlcNAc(b1-2)[Gal(b1-4)GlcNAc(b1-4)]Man(a1-3)[GlcNAc(b1-4)][Gal(b1-4)GlcNAc(b1-2)Man(a1-6)]Man(b1-4)GlcNAc(b1-4)GlcNAc
# Method in brief: as §1
# [16] = biological target: Gal(b1-4)GlcNAc(b1-2)[Gal(b1-4)GlcNAc(b1-4)]Man(a1-3)[GlcNAc(b1-4)][Gal(b1-4)GlcNAc(b1-2)[Gal(b1-4)GlcNAc(b1-6)]Man(a1-6)]Man(b1-4)GlcNAc(b1-4)GlcNAc
# Method in brief: as §1
# [17] = biological target: Gal(b1-4)GlcNAc(b1-2)[Gal(b1-4)GlcNAc(b1-6)]Man(a1-6)[Gal(b1-4)GlcNAc(b1-2)Man(a1-3)]Man(b1-4)GlcNAc(b1-4)GlcNAc
# Method in brief: as §1
# [18] = biological target: Gal(b1-4)GlcNAc(b1-2)[Gal(b1-4)GlcNAc(b1-6)]Man(a1-6)[Gal(b1-4)GlcNAc(b1-2)Man(a1-3)]Man(b1-4)GlcNAc(b1-4)[Fuc(a1-6)]GlcNAc
# Method in brief: as §1
# [19] = biological target: Gal(b1-4)GlcNAc(b1-2)[Gal(b1-4)GlcNAc(b1-6)]Man(a1-6)[GlcNAc(b1-4)][Gal(b1-4)GlcNAc(b1-2)Man(a1-3)]Man(b1-4)GlcNAc(b1-4)GlcNAc
# Method in brief: as §1
# [20] = biological target: Gal(b1-4)GlcNAc(b1-2)[Gal(b1-4)GlcNAc(b1-6)]Man(a1-6)[GlcNAc(b1-4)][Gal(b1-4)GlcNAc(b1-2)[Gal(b1-4)GlcNAc(b1-4)]Man(a1-3)]Man(b1-4)GlcNAc(b1-4)[Fuc(a1-6)]GlcNAc
# Method in brief: as §1
# [21] = biological target: Gal(b1-4)GlcNAc(b1-3)Gal(b1-3)GalNAc
# Method in brief: as §1
# [22] = biological target: Gal(b1-4)GlcNAc(b1-3)Gal(b1-3)GlcNAc
# Method in brief: as §1
# [23] = biological target: Gal(b1-4)GlcNAc(b1-3)Gal(b1-4)Glc
# Method in brief: as §1
# [24] = biological target: Gal(b1-4)GlcNAc(b1-3)Gal(b1-4)GlcNAc
# Method in brief: as §1
# [25] = biological target: Gal(b1-4)GlcNAc(b1-3)Gal(b1-4)GlcNAc(b1-2)Man(a1-3)[Gal(b1-4)GlcNAc(b1-3)Gal(b1-4)GlcNAc(b1-2)Man(a1-6)]Man(b1-4)GlcNAc(b1-4)GlcNAc
# Method in brief: as §1
# [26] = biological target: Gal(b1-4)GlcNAc(b1-3)Gal(b1-4)GlcNAc(b1-2)Man(a1-3)[Gal(b1-4)GlcNAc(b1-3)Gal(b1-4)GlcNAc(b1-2)Man(a1-6)]Man(b1-4)GlcNAc(b1-4)[Fuc(a1-6)]GlcNAc
# Method in brief: as §1
# [27] = biological target: Gal(b1-4)GlcNAc(b1-3)Gal(b1-4)GlcNAc(b1-2)[Gal(b1-4)GlcNAc(b1-3)Gal(b1-4)GlcNAc(b1-6)]Man(a1-6)[Gal(b1-4)GlcNAc(b1-3)Gal(b1-4)GlcNAc(b1-2)Man(a1-3)]Man(b1-4)GlcNAc(b1-4)GlcNAc
# Method in brief: as §1
# [28] = biological target: Gal(b1-4)GlcNAc(b1-3)Gal(b1-4)GlcNAc(b1-2)[Gal(b1-4)GlcNAc(b1-3)Gal(b1-4)GlcNAc(b1-6)]Man(a1-6)[Gal(b1-4)GlcNAc(b1-3)Gal(b1-4)GlcNAc(b1-2)Man(a1-3)]Man(b1-4)GlcNAc(b1-4)[Fuc(a1-6)]GlcNAc
# Method in brief: as §1
# [29] = biological target: Gal(b1-4)GlcNAc(b1-3)Gal(b1-4)GlcNAc(b1-3)Gal(b1-4)GlcNAc
# Method in brief: as §1
# [30] = biological target: Gal(b1-4)GlcNAc(b1-3)Gal(b1-4)GlcNAc(b1-3)Gal(b1-4)GlcNAc(b1-2)Man(a1-3)[Gal(b1-4)GlcNAc(b1-3)Gal(b1-4)GlcNAc(b1-3)Gal(b1-4)GlcNAc(b1-2)Man(a1-6)]Man(b1-4)GlcNAc(b1-4)GlcNAc
# Method in brief: as §1
# [31] = biological target: Gal(b1-4)GlcNAc(b1-3)Gal(b1-4)GlcNAc(b1-3)Gal(b1-4)GlcNAc(b1-2)Man(a1-3)[Gal(b1-4)GlcNAc(b1-3)Gal(b1-4)GlcNAc(b1-3)Gal(b1-4)GlcNAc(b1-2)Man(a1-6)]Man(b1-4)GlcNAc(b1-4)[Fuc(a1-6)]GlcNAc
# Method in brief: as §1
# [32] = biological target: Gal(b1-4)GlcNAc(b1-3)Gal(b1-4)GlcNAc(b1-3)Gal(b1-4)GlcNAc(b1-2)[Gal(b1-4)GlcNAc(b1-3)Gal(b1-4)GlcNAc(b1-3)Gal(b1-4)GlcNAc(b1-6)]Man(a1-6)[Gal(b1-4)GlcNAc(b1-3)Gal(b1-4)GlcNAc(b1-3)Gal(b1-4)GlcNAc(b1-2)Man(a1-3)]Man(b1-4)GlcNAc(b1-4)[Fuc(a1-6)]GlcNAc
# Method in brief: as §1
# [33] = biological target: Gal(b1-4)GlcNAc(b1-3)Gal(b1-4)GlcNAc(b1-3)Gal(b1-4)GlcNAc(b1-3)Gal(b1-4)GlcNAc(b1-2)Man(a1-3)[Gal(b1-4)GlcNAc(b1-3)Gal(b1-4)GlcNAc(b1-3)Gal(b1-4)GlcNAc(b1-3)Gal(b1-4)GlcNAc(b1-2)Man(a1-6)]Man(b1-4)GlcNAc(b1-4)GlcNAc
# Method in brief: as §1
binder,measurement,setting,value
B1,glycan array binding signal (z-score),Gal(b1-4)Glc,-0.053
same,glycan array binding signal (z-score),Gal(b1-4)Glc6S,-0.062
same,glycan array binding signal (z-score),Gal(b1-4)GlcNAc,-0.258
same,glycan array binding signal (z-score),[1],-0.029
same,glycan array binding signal (z-score),Gal(b1-4)GlcNAc(b1-2)Man,-0.103
same,glycan array binding signal (z-score),[2],0.05
same,glycan array binding signal (z-score),[3],-0.209
same,glycan array binding signal (z-score),[4],-0.276
same,glycan array binding signal (z-score),[5],-0.152
same,glycan array binding signal (z-score),[6],-0.365
same,glycan array binding signal (z-score),[7],0.012
same,glycan array binding signal (z-score),[8],-0.478
same,glycan array binding signal (z-score),[9],0.006
same,glycan array binding signal (z-score),[10],-0.401
same,glycan array binding signal (z-score),[11],0.211
same,glycan array binding signal (z-score),[12],-0.306
same,glycan array binding signal (z-score),[13],0.241
same,glycan array binding signal (z-score),[14],-0.416
same,glycan array binding signal (z-score),[15],-0.192
same,glycan array binding signal (z-score),[16],-0.422
same,glycan array binding signal (z-score),[17],-0.475
same,glycan array binding signal (z-score),[18],-0.137
same,glycan array binding signal (z-score),[19],-0.161
same,glycan array binding signal (z-score),[20],-0.179
same,glycan array binding signal (z-score),[21],-0.417
same,glycan array binding signal (z-score),[22],-0.494
same,glycan array binding signal (z-score),[23],-0.266
same,glycan array binding signal (z-score),[24],-0.608
same,glycan array binding signal (z-score),[25],1.18
same,glycan array binding signal (z-score),[26],0.906
same,glycan array binding signal (z-score),[27],-0.347
same,glycan array binding signal (z-score),[28],0.099
same,glycan array binding signal (z-score),[29],-0.184
same,glycan array binding signal (z-score),[30],3.56
same,glycan array binding signal (z-score),[31],0.003
same,glycan array binding signal (z-score),[32],1.29
same,glycan array binding signal (z-score),[33],5.64
